Laboratory results from paper PMC4336329 (PLoS ONE, 2015).
The campaign covered roughly 310,000 compounds. About 14,000 (4.5%) showed an effect of 50% or more. The effect is printed as a negative number. This is one part of the list.

biological target: human ether-à-go-go-related gene (hERG) potassium channel (human, UniProt Q12809); assay: primary screen, population patch clamp on CHO cells stably expressing hERG
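Further: peak tail current of the secondary pulse compared with the same well before compound.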

human ether-à-go-go-related gene (hERG) potassium channel, sequence (Q12809 whole entry, looked up): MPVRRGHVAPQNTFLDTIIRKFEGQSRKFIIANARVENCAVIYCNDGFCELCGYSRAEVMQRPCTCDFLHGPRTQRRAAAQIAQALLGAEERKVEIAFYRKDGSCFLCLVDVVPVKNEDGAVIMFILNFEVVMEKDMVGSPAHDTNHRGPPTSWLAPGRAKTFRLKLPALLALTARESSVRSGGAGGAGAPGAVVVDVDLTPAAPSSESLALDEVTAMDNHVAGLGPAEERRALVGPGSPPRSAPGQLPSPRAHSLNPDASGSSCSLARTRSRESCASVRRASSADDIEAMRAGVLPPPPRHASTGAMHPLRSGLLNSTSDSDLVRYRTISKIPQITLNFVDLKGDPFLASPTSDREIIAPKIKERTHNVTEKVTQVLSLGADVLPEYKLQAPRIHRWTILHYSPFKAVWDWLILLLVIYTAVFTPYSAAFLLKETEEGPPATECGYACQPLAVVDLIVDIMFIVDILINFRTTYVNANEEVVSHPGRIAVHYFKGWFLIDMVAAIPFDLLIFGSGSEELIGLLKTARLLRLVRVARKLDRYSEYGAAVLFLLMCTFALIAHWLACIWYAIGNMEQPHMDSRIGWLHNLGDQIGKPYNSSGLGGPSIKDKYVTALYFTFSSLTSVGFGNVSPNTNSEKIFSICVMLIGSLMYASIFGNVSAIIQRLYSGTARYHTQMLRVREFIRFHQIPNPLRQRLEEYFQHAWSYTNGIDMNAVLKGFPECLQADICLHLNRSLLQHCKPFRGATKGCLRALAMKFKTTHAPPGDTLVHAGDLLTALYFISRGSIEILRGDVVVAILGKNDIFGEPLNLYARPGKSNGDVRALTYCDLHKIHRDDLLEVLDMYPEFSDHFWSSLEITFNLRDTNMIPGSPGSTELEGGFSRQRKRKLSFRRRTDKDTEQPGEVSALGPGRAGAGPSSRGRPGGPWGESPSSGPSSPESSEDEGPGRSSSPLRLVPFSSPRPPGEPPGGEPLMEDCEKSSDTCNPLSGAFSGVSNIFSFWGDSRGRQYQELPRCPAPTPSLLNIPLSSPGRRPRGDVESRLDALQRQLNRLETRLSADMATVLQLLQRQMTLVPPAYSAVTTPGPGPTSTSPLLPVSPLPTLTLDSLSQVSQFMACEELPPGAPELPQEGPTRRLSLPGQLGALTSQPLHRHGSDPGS

Structure (SMILES) | hERG current change (%, negative = inhibition) at 10uM
Cc1ccc2[nH]c3c(=O)n(N)c(C)nc3c2c1 | 15.7%
CC(C)NC(=S)NNc1ncnc2sc3c(c12)CC(C)(C)OC3 | 8.65%
CC(C)(C)OC(=O)NC(CO)c1cn([C@@H](Cc2cc3ccccc3[nH]2)C(=O)N2CCN(C(=O)OC(C)(C)C)CC2)nn1 (stereo partly drawn) | 2.26%
COC(=O)c1cccc(NC(=O)C(C)N2C(=O)c3ccccc3C2=O)c1 (stereo not drawn) | -1.39%
COC(=O)C1=C(c2ccc(Cl)c(C(F)(F)F)c2)C[C@@H]2CC[C@H]1N2C(=O)NC(C)C | -13.9%
Cn1c(C(=O)N2CCCC(C(=O)NCCN3CCOCC3)C2)cc2sccc21 (stereo not drawn) | 3.34%
CC(=O)Oc1cc(O)c2c(c1)OC(c1ccc(OC(C)=O)c(OC(C)=O)c1)C(OC(C)=O)C2=O (stereo not drawn) | -4.69%
O=[N+]([O-])c1cc2c(cc1CN1CCN(c3ccc(F)cc3)CC1)OCO2 | -22.2%
COCCn1c(=O)c2c(nc3n2CCCN3CCc2ccccc2)n(C)c1=O | -31.2%
O=C1NC(=S)N(c2ccccc2)C(=O)/C1=C/c1ccco1 | -10%
CC(C)C(=O)Nc1nnc(S(=O)(=O)N2CCCCCC2)s1 | 10.4%
Cc1cc(C)n2nc(C(=O)Nc3ccc4c(c3)OCCO4)nc2n1 | 10.9%
CCOc1cc2[nH]c(=S)n(CCCOC)c(=O)c2cc1OCC | -12.1%
Cn1c(=O)c2c(nc(SCC(=O)NCc3ccc4c(c3)OCO4)n2Cc2ccc(Cl)cc2)n(C)c1=O | -50.6%
Cc1ccnc(N2C3CCC2CC(O)(c2ccccc2)C3)n1 (stereo not drawn) | 27.4%
O=C(NC(=S)N1CCCCCC1)c1ccccc1 | 19.8%
COC(=O)c1cc(S(=O)(=O)Nc2cc(OC)cc(OC)c2)c[nH]1 | 4.11%
Cc1nnc(NC(=O)c2cccc(S(=O)(=O)N3CC(c4ccccc4)CC3=O)c2)s1 (stereo not drawn) | -16.1%
O=c1[nH]c(=O)n(CCOc2ccc(Cl)cc2)cc1Br | -4.33%
COc1ccccc1NC(=O)CSc1nncn1-c1cccnc1 | -4.19%
COc1ccc(OC)c(NC(=O)CSc2ncnc3c2cnn3-c2ccccc2Cl)c1 | -4.1%
CCN(CC(=O)NCc1ccc(Cl)cc1)C(=O)/C=C/c1ccc(Cl)c([N+](=O)[O-])c1 | -67.6%

Structure (SMILES) | hERG current change (%, negative = inhibition) at 10uM
O=C(OCC(=O)N1CCCc2ccccc21)c1cc(S(=O)(=O)N2CCOCC2)ccc1F | -13.3%
CC(C)(C)n1nnnc1C(c1cccnc1)N1CCN(c2ccccc2F)CC1 (stereo not drawn) | -3.22%
Cc1cc2oc(=O)cc(CN3CCCc4ccccc43)c2cc1C | 17.1%
Cc1ccc(-c2nc(CS(=O)(=O)CC(=O)NCc3ccc4c(c3)OCO4)c(C)o2)cc1 | 8%
COc1ccc(-n2ccnc(SCC(=O)NC3CCCC3)c2=O)cc1 | 0.0746%
CC(=O)N1CCOc2ccc(S(=O)(=O)NCCc3ccc(C)cc3)cc21 | -2.91%
Cn1cnnc1SCC(C)(C)NS(=O)(=O)c1ccc(Cl)cc1 | 31.7%
CCC(=O)N1CCc2cc(S(=O)(=O)CCC(=O)NCc3ccc(C)cc3)ccc21 | 15.6%
Cc1ccc(C(=O)OCc2nc(N)nc(Nc3ccccc3C)n2)cc1 | 6.18%
N#C/C(=C\c1ccccc1)C(=O)Nc1cc(S(=O)(=O)N2CCOCC2)ccc1N1CCCC1 | -7.36%
CC(CCCC(C)(C)O)NCc1cn[nH]c1-c1ccc2c(c1)OCO2 (stereo not drawn) | -19.7%
COc1ccc(CSCCc2n[nH]c(=S)n2-c2ccccc2)cc1C | 0.99%
COc1ccc(-n2c(SCC(=O)NNC(=O)c3ccc(C)cc3)nnc2-c2ccncc2)cc1 | -58.6%
CN1CCN(NC(=O)CSc2ccc(Cl)cc2Cl)CC1 | 17.6%
O=C(CN1CCN(Cc2ccc(Cl)cc2)C1=O)NCc1cccs1 | -57.6%
CN(C)N=Nc1ccc(S(=O)(=O)NC(=O)Cc2ccccc2)cc1 | 8.66%
O=C(Cc1cccs1)Nc1nnc(C2CC2)s1 | 16.1%
COCCSc1ccccc1C(=O)Nc1nnc(C)s1 | -5.34%
C(=N\N(c1ccccc1)c1ccccc1)/c1ccccn1 | 7.74%
O=C(CCc1ccccc1)Nc1nn[nH]n1 | -5.09%
COc1ccc(C(=O)OCCCN(C)C)cc1OC | -8.38%
CCC(NC(=O)c1oc2ccccc2c1COC)c1ccc(OC)cc1 (stereo not drawn) | 10.4%

Structure (SMILES) | hERG current change (%, negative = inhibition) at 10uM
CCc1c(C(=O)OC)nnc2cc(C)nn12 | 15.5%
NC(=O)CN1C(=O)C(=O)N(Cc2ccc(F)cc2)C1=O | 20.8%
COc1cc(/C=N/NC(=O)c2cc(-c3cccc(OC(C)C)c3)nc3ccccc23)ccc1O | -0.055%
CCCOCC1CC(CCc2nc(=S)[nH][nH]2)C(=O)O1 (stereo not drawn) | 19.8%
O=C(C[n+]1ccn(CCCNP2(=O)C=C(c3ccccc3)OC(c3ccccc3)=C2)c1)c1ccccc1.[Br-] | -22.8%
Cc1ccc(NC(=O)Cc2sc(C)nc2-c2ccc(C)cc2)cc1 | -12.3%
COc1ccc(Cn2c(O)cc(=O)[nH]c2=O)cc1 | 11.8%
Nc1nc(-c2ccccc2)nn1C(=O)Cc1ccccc1 | 22%
CCCOc1ccccc1/C=C1\SC(N2CCCCC2)=NC1=O | -12.3%
COc1ccc(S(=O)(=O)NC2CCCC2)cc1Br | -7.96%
O=C1CC2(CCN(C(=O)C3CC(=O)N(c4ccc(F)cc4)C3)CC2)Oc2ccccc21 (stereo not drawn) | -78.7%
COc1ccc(C(C)=O)cc1CN1C(=O)NC2(CCCCC2C)C1=O (stereo not drawn) | -2.09%
Cc1cccc2cc(CN(C(=O)c3cnccn3)C3CCCCC3)c(Cl)nc12 | 10.8%
Cn1c(SCC(=O)NC2CCCC2)nnc1-c1ccncc1 | 33.9%
COC(=O)CCCNC(=O)c1ccc2oc(CCCc3ccccc3)nc2c1 | -17.9%
Cc1ccc(OCCOC(=O)c2sc(=S)n(C)c2C)cc1 | 16.8%
CC(=O)Nc1ccc(S(=O)(=O)NC2(C(F)(F)F)NC(=O)N(c3ccc(C)cc3)C2=O)cc1 (stereo not drawn) | 11.1%
O=C1C2C3C=CC(C2C(=O)N1c1ccc(O)cc1)C1C2C(=O)N(c4ccc(O)cc4)C(=O)C2C31 (stereo not drawn) | -10.7%
Cc1cc(N2CCN(C(c3ccccc3)c3ccccc3)CC2)n2ncnc2n1 | -5.7%
CN(C(=O)CO/N=C/c1ccc(OC(F)F)cc1)C1CCS(=O)(=O)C1 (stereo not drawn) | -59.2%
COCCNC(=O)COc1ncnc2scc(-c3ccc(F)cc3)c12 | -0.0199%
CC(=O)Oc1ccc(N2C(=O)C3C4C=CC(O4)C3C2=O)cc1 (stereo not drawn) | 17.3%

Structure (SMILES) | hERG current change (%, negative = inhibition) at 10uM
CC(=O)NC(Cc1ccc(F)c(F)c1)C(=O)NC1CCN(C(=O)c2ccc(Cl)cc2)CC1 (stereo not drawn) | -56.9%
CCCOc1ccc(CC(=O)NCCc2ccccc2)cc1OC | -3.19%
CCCCc1ccc(/C(C)=N/NC(=O)C2CCCC2)cc1 | 8.29%
CCOc1ccc(-n2c(Cc3cc(=O)[nH]c(=O)[nH]3)nnc2SCC(N)=O)cc1 | 1.61%
O=C1NC(=O)N(c2ccccc2)C(=O)/C1=C\c1ccc([N+](=O)[O-])o1 | 1.93%
N#Cc1c(-c2ccc(Cl)cc2)ccn2nc(CCC(=O)O)nc12 | 16.4%
COc1ccc(C2C(=O)N(C3CCCCC3)CC(=O)N2Cc2ccco2)cc1 (stereo not drawn) | -53.7%
COc1ccccc1NC(=O)c1ccc(NC(=O)CSc2ncn[nH]2)cc1 | 19.1%
O=C(COC(=O)c1ccc(Cl)c(S(=O)(=O)N2CCCCCC2)c1)Nc1ccccc1 | -0.489%
Cc1nn(-c2ccccc2)c(C)c1-c1ccccc1O | 4.92%
COC(=O)c1ccccc1N1C(=O)[C@@H]2C(c3ccc(F)cc3)=NO[C@@H]2C1=O | -5.78%
O=C(CCNS(=O)(=O)c1cccc2nsnc12)Nc1ccc2c(c1)OCCO2 | 7.28%
CCOc1ccc(NC(=O)CN(C)C(=O)c2ccc(NC3CC3)c([N+](=O)[O-])c2)cc1OCC | -59%
CCOC(=O)c1c(S(=O)(=O)NCC(=O)N2CCN(c3ccc(OC)cc3)CC2)c(C)n(C)c1C | 9.12%
CC(C)=CCSc1nnc(CCNC(=O)OC(C)(C)C)o1 | -36.5%
Cc1ccc(CSC2=CS(=O)(=O)c3ccccc3N2)cc1 | -6.46%
COCCNC(=O)CN(C(=O)Cn1nnc2ccccc21)c1ccc(F)c(Cl)c1 | -3.78%
CC(C)CNC(=S)NNC(=O)c1ccc(OC(F)F)cc1 | -17.4%
O=C(OC(C(=O)Nc1ccc(Cl)cc1C(F)(F)F)c1ccccc1)C1=COCCO1 (stereo not drawn) | -39.2%
CC1CCC(NC(=O)c2ccc(S(C)(=O)=O)cc2)CC1 (stereo not drawn) | 8.59%
COCCn1c(=O)[nH]c2cc(C(=O)NCCCN3CCN(c4ccc(F)cc4)CC3)ccc2c1=O | -11.5%
